# PubChem BioAssay AID1345082 (National Center for Advancing Translational Sciences (NCATS), 2018)
# Hit rate of the full screen: of about 94,000 compounds, about 4,000 (4.3%) were called active. Inconclusive results, whose numbers are uncertain, are shown with a selection of clear calls. Calls follow the shape of the dose curve; as a rule, active = well fitted inhibition curve with a large enough effect; inconclusive = small, poorly fitted or top-dose-only effect; inactive = no such curve, though single readings can be large or run the other way. A potency beside an inconclusive call is a rough fit, not a confirmed value.
# Experiment: Cytotoxic Profiling in NIH 3T3 Cell Line of Diverse Libraries Using Quantitative High-Throughput Screening; also: nearly all actives have a fitted effect of over 55% in size
# Conditions: NIH 3T3 viability, CellTiter-Glo ATP luminescence, 48-72 h; activity change, negative = cytotoxicity: at 96.7 µM (top of the series) unless noted; series mostly up to 96.7 µM
# Summary of the method: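 Viability of NIH 3T3 cells after 48 or 72 hr compound treatment at 37 °C was assessed by CellTiter-Glo, with luminescence imaged following a 10 min room-temperature step.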
# % is scaled to controls: 0 for no effect and ±100 for the full control effect; potency is read from the fitted curve at half-maximal effect; tags tell the direction and shape of the fitted curve.
SMILES,"activity change, negative = cytotoxicity",Potency,outcome
COc1ccc(CC(=O)NC2CCc3nnc(C4CC4)n3CC2)cc1 (centres undefined),inactive: -12.9%,–,–
COc1ccc(N2Cc3c(NCCc4ccccn4)ncnc3N(C)CC2=O)cc1,–,"inconclusive: 79.4 µM [inhibitor, partial curve, poor fit]",–
CCOC(=O)CC1CCCCN1S(=O)(=O)c1cc(F)ccc1F (centres undefined),inactive: -8.07%,–,–
COc1ccc(-c2[nH]nc3ncc(-c4cccnc4)nc23)cc1F,–,"inconclusive: 11.2 µM [inhibitor, full curve, poor fit]",–
Cc1ccc(-c2cc(C(=O)NCc3cccs3)c3cnn(C)c3n2)c(C)c1,–,"inconclusive: 50.1 µM [inhibitor, partial curve, poor fit]",–
CCc1cccc(NC(=O)c2cc3n(n2)CC(c2ccc(Cl)cc2)OC3)c1 (centres undefined),–,"inconclusive: 50.1 µM [inhibitor, partial curve, poor fit]",–
O=C(NC1CCN(c2ccc3nnc(-c4ccccc4)n3n2)CC1)c1ccccc1F,inactive: -23.8%,–,–
O=C1CCN(C(=O)C2CCN(C(=O)c3cnccn3)CC2)CCCCCCN1,inactive: -17.5%,–,–
COc1cccc(-c2n[nH]c3c2CC(=O)N(Cc2ccccn2)C3)c1,–,"inconclusive: 112 µM [inhibitor, single point]",–
COC(=O)CNC(=O)c1nc2cccnc2n(Cc2ccccc2)c1=O,inactive: -13.3%,–,–
COc1ccc2cc(C(=O)N3C[C@@H](CO)[C@H](c4ccccn4)C3)[nH]c2c1,–,"inconclusive: 79.4 µM [inhibitor, single point]",–
O=C(Nc1ccccc1)N1CCC(c2nn(-c3ccccc3)c(=O)[nH]2)CC1,–,"inconclusive: 70.8 µM [inhibitor, single point]",–
Cc1cc(C)c(S(=O)(=O)N2CCC(C)(c3noc(C)n3)CC2)c(C)c1,–,"inconclusive: 39.8 µM [inhibitor, partial curve, poor fit]",–
O=C(c1ccccc1)N1CCC(C(=O)N2CCC(c3nc4ncccc4[nH]3)C2)CC1 (centres undefined),inactive: -9.7%,–,–
CCN(CC)C(=O)N1CCC(c2noc(-c3ccccc3)n2)C1 (centres undefined),–,"inconclusive: 35.5 µM [inhibitor, partial curve, poor fit]",–
CC(C)c1noc(C2CCCN2C(=O)c2cc(-c3cccs3)n(C)n2)n1 (centres undefined),inactive: -21.8%,–,–
O=C1CC(c2ccccc2)N(Cc2ccc(F)c(F)c2)CCCCCN1 (centres undefined),–,active: 39.8 µM,–
CC(=O)NC1CCN(Cc2cn(-c3ccc(C)cc3)nc2-c2cccc(C)c2)C1 (centres undefined),–,"inconclusive: 79.4 µM [inhibitor, single point]",–
COc1cccc(-c2cc(C(=O)NCCc3ccccn3)c3cnn(C)c3n2)c1,–,"inconclusive: 50.1 µM [inhibitor, partial curve, poor fit]",–
CN1C(=O)CCC2(CNC(=O)c3ccncc3)CCCC=C12 (centres undefined),inactive: 0.427%,–,–
CCS(=O)(=O)Nc1ccc(-c2nc(C3CCOC3)no2)cc1 (centres undefined),inactive: -16.9%,–,–
CN(C)c1ccc(CN2CCCC(COc3ccccc3C(=O)N3CCCC3)C2)cc1 (centres undefined),–,"inconclusive: 50.1 µM [inhibitor, single point]",–

SMILES,"activity change, negative = cytotoxicity",Potency,outcome
Cn1ncc2c(C(=O)Nc3ccccc3F)cc(-c3ccccc3C(F)(F)F)nc21,inactive: 1.79%,–,–
CN(Cc1ccccc1)Cc1cc(CC2(NCc3cccs3)COC2)no1,inactive: -19.3% [at 138 µM],–,–
Cc1ccc([S+](=O)([O-])NC2CCCN(c3nc4ncccc4o3)C2)cc1 (centres undefined),–,"inconclusive: 22.4 µM [inhibitor, full curve]",–
CCn1cc(CN2CCC(N3CC(OCC4CC4)C34CCCCC4)CC2)cn1 (centres undefined),–,"inconclusive: 50.1 µM [inhibitor, partial curve, poor fit]",–
COc1ccc(Cl)cc1-c1ccc2c(c1)C(=O)N1CCN(C(=O)c3ccc(N(C)C)cc3)C[C@@H]1C(=O)N2,–,"inconclusive: 50.1 µM [inhibitor, partial curve, poor fit]",–
Cc1nn(-c2ccccc2)c2c1C(C1CC1)N(C1CN(C(=O)C(C)(C)C)C1)C2=O (centres undefined),–,"inconclusive: 28.2 µM [inhibitor, partial curve, poor fit]",–
O=C(C1CC1)N1CCN2C(=O)NC[C@H]2C1,inactive: 0.466% [at 279 µM],–,–
Cc1ccccc1C(=O)N1CCN(Cc2ccccc2-c2ccccc2F)CC1,–,"inconclusive: 35.5 µM [inhibitor, full curve, poor fit]",–
COc1ccc(OC)c(S(=O)(=O)N[C@H]2CO[C@H]3[C@@H]2OC[C@H]3OC(=O)Nc2ccc(C(C)=O)cc2)c1,–,–,inactive
COc1ccc(N2CCN(c3nc(C(=O)NCc4cccc(C)c4)cs3)CC2)cc1,–,"inconclusive: 35.5 µM [inhibitor, partial curve]",–
CC1(C(=O)NCc2ccccc2)CCCCC(=O)N1 (centres undefined),inactive: -0.438%,–,–
COC(=O)[C@@H]1Cc2ncn(Cc3ccc(OC)cc3)c2CN1S(=O)(=O)c1cccc2cccnc12,–,"inconclusive: 89.1 µM [inhibitor, single point]",–
Cc1noc(C)c1[S+](=O)([O-])N1CCCC(C(=O)N2CCC(N3CCCC3=O)CC2)C1 (centres undefined),inactive: -21.6%,–,–
COc1ccccc1-c1cc2c(ccn2C)c(C(=O)NCc2cnccn2)n1,–,"inconclusive: 63.1 µM [inhibitor, partial curve, poor fit]",–
Cc1cc2nc3n(c(=O)c2n1CC(=O)NCc1ccc(Cl)cc1)CCCCC3,–,"inconclusive: 70.8 µM [inhibitor, single point]",–
O=C(NC1CC1)c1ccc2nnc(CC3CC3)n2c1,inactive: -10.3% [at 138 µM],–,–
FC(F)(F)c1ccc(CN2CCC3(CC2)CC(c2cccc(C(F)(F)F)c2)=NO3)cc1,inactive: -6.47%,–,–
O=C1OCCN1CCNc1ccc(-c2nc(-c3ccccc3F)no2)cn1,–,"inconclusive: 12.6 µM [inhibitor, partial curve, poor fit]",–
COc1ccc(NC(=O)C2CCc3nnc(CNC(C)=O)n32)cc1 (centres undefined),inactive: -8.77%,–,–
CCOc1ccccc1C(=O)N[C@@H]1CN(Cc2cccnc2)C[C@H]1CN(C)C,–,"inconclusive: 79.4 µM [inhibitor, partial curve, poor fit]",–
O=C(CCC1CCN(S(=O)(=O)c2ccc(F)cc2)CC1)N1CCc2ccccc2C1,–,"inconclusive: 44.7 µM [inhibitor, partial curve, poor fit]",–
COCc1noc(CNC(=O)C(c2ccc(F)cc2)N(C)C)n1 (centres undefined),inactive: -0.106%,–,–
